# Measured values taken from publication PMC6919601, “Identification of Plasmodium dipeptidyl aminopeptidase allosteric inhibitors by high throughput screening” (PLoS ONE, 2019).
# The campaign covered roughly 110,000 compounds. About 230 (0.21%) showed an effect of 50% or more. This is one part of the list.
# Biological target: DPAP1 (Plasmodium falciparum, UniProt Q8IIJ9)
# Assay: primary screen, percent inhibition; read by cleavage of a fluorogenic dipeptide substrate; higher = more effect of the substance
# Design: species or system P. falciparum D10 trophozoite lysates; single well
# 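Note: 30 min substrate incubation versus DMSO and 10 µM JCP410 controls.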
# Sequence of DPAP1 (Q8IIJ9 whole entry, looked up): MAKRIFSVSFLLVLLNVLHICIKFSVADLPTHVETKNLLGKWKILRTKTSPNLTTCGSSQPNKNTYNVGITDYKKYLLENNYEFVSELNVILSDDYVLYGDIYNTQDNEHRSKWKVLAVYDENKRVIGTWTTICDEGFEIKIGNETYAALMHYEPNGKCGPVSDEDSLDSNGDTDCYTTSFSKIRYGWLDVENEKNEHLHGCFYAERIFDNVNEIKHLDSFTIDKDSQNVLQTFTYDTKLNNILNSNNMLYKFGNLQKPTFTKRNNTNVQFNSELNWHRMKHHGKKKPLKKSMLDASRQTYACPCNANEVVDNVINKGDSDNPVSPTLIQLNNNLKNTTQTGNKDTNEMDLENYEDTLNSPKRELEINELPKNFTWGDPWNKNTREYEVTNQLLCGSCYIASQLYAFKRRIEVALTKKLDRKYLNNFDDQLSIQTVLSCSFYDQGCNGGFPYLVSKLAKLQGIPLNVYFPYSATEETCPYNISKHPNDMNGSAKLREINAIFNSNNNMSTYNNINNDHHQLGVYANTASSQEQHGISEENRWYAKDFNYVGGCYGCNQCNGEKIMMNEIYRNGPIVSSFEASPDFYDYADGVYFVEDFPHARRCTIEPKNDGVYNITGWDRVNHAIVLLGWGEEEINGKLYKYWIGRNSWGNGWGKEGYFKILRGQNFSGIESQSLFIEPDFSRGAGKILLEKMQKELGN
row,SMILES,% Inhibition @ 10 uM [%]
1,CC1=C(C#N)C(c2ccc(Cl)c(Cl)c2)C2=C(O)CC(C)(C)CC2=N1 (stereo not drawn),5.31
2,O=c1[nH]n(CN2CCOCC2)c(=O)c2ccccc12,-3.12
3,Cc1oc2cc3c(C(=O)N4CCN(C)CC4)c(C)oc3cc2c1C(=O)N1CCN(C)CC1,-1.43
4,COc1cc2c(cc1OC)C(C)(C(C)(C)O)NCC2 (stereo not drawn),1.64
5,CCOC(=O)c1c(C)[nH]c(C)c1S(=O)(=O)Nc1ccc(C)cn1,1.23
6,O=S(=O)(c1cccc2c(S(=O)(=O)N3CCCC3)cccc12)N1CCCC1,1.29
7,CC(=O)N(C)c1ccc(NC(=O)COc2ccc3ccccc3c2)cc1,-0.366
8,Cc1ccccc1NC(=O)CN(c1cccc(Br)c1)S(C)(=O)=O,-2.66
9,Cc1ccc(N(CC(=O)N2CCN(C)CC2)S(=O)(=O)c2ccc(Cl)cc2)cc1C,-0.116
10,Cn1c(=O)c2c(nc(NCc3ccccc3)n2CC(=O)NCc2ccccc2)n(C)c1=O,-6.78
11,COc1ccc([N+](=O)[O-])cc1NC1CCCCC1,-7.11
12,Cc1ccc(C(=O)NC2(C(F)(F)F)N=C3SCCN3C2=O)cc1 (stereo not drawn),-7.35
13,COc1cccc(C(=O)Nc2ccc(Cc3ccc(N)cc3)cc2)c1OC,0.163
14,C=CCOC(=O)C1=C(C)N=C(C)/C(=C(/O)OCC=C)C1c1ccc(C(=O)OC)cc1 (stereo not drawn),-1.93
15,CCOc1ccc(-c2csc(/C(C#N)=C/c3ccc(C)cc3)n2)cc1,-2.42
16,COc1ccc(NC(=O)C2=C(C)Nc3ncnn3C2c2cccc(Br)c2)cc1 (stereo not drawn),-1.16
17,Cc1ccc(OCC(=O)Nc2cccc(O)c2)cc1,-6.82
18,Cc1cc(C)cc(NC(=O)CCC(=O)O)c1,4.16
19,CCCN1C(=O)c2n[nH]c(C)c2C1c1ccccn1 (stereo not drawn),5.43
20,O=C(NCc1cccnc1)c1ccc(C(=O)NCc2cccnc2)cc1,7.09
21,COc1ccc(CC(=O)n2nc(-c3ccccc3)nc2NCc2ccccc2Cl)cc1OC,0.628
22,Cc1ccc(CNC(=O)c2sccc2-n2cccc2)cc1,21.1
23,COc1cccc(C(=O)Nc2ccc(F)cc2F)c1,-1.07
24,Nc1ccc(N2CCN(c3c(F)c(F)nc(F)c3F)CC2)cc1,4.01

row,SMILES,% Inhibition @ 10 uM [%]
1,Cc1ccc(-c2nc(CS(=O)CC(=O)NCCCN3CC(C)CC(C)C3)c(C)o2)cc1 (stereo not drawn),3.79
2,Cc1ccc(NC(=O)CCC(C(=O)O)N2C(=O)c3ccccc3C2=O)cc1 (stereo not drawn),1.64
3,O=C(C1CCN(S(=O)(=O)c2cc(Cl)ccc2Cl)CC1)N1CCN(Cc2ccccc2)CC1,-8.36
4,CN1C(=O)CC(N2CCN(c3ccccn3)CC2)C1=O (stereo not drawn),-2.51
5,CC1=NC2=C(C(=O)CC(C)(C)C2)C(c2ccccc2C)/C1=C(\O)OC(C)C (stereo not drawn),2.38
6,COC(=O)c1ccc(CN2CC(=O)N3CCCCC3C2=O)cc1 (stereo not drawn),-3.53
7,Cc1c(Cl)cccc1N1C(N)=C(C#N)C(c2cccnc2)C2=C1CC(C)(C)CC2=O (stereo not drawn),-0.759
8,N=c1c(S(=O)(=O)c2ccccc2)cc2c(=O)n3ccccc3nc2n1CC1CCCO1 (stereo not drawn),-8.72
9,O=C(O)c1cc(C(=O)O)cc(N2C(=O)C3C4c5ccccc5C(c5ccccc54)C3C2=O)c1 (stereo not drawn),5.92
10,COc1cccc(OCC(O)CN2CC(C)CC(C)C2)c1 (stereo not drawn),2.6
11,O=C(NCc1ccccc1)c1cccc(N2C(=O)C3C4C=CC(C5CC45)C3C2=O)c1 (stereo not drawn),-0.661
12,Cc1c2cnn(CC(=O)NCC3CCCO3)c(=O)c2c(C)n1Cc1ccccc1F (stereo not drawn),-2.17
13,CCCc1ccc(-c2c(C)sc(N)c2C#N)cc1,-0.463
14,CCN1CCC(NCC2CCCCC2)CC1,3.19
15,O=C(/C=C/c1ccccc1)Nc1cccc(C(=O)O)c1,1.63
16,O=C(c1cccn2c(=O)c3sccc3nc12)N1CCN(Cc2ccc3c(c2)OCO3)CC1,0.121
17,CCCN1C(C(=O)c2ccccc2)=C(OC(=O)c2ccccc2OC)c2ccccc2S1(=O)=O,-3.22
18,COc1ccc(CN2CCN(Cc3ccc(OC)c(Br)c3)CC2)c(OC)c1,-15.1
19,Cc1cc(C(=O)NCCCN2CCN(C3CCCCC3)CC2)n(-c2ccccc2)n1,1.55
20,COc1ccc(CN2CCN(C(=O)COc3ccc(Cl)cc3)CC2)cc1OCc1ccccc1,-5.26
21,CC1CCC(C(C)C)C(OCC(O)CN2CC(C)OC(C)C2)C1 (stereo not drawn),-6.12
22,O=C(Cn1ncn2nc(-c3cccs3)cc2c1=O)N1CCN(Cc2ccccc2)CC1,0.623
23,CN1CCC(N2CCN(c3ccc(F)cc3)CC2)CC1,2.99
24,CC(C)(CC(=O)Nc1sc2c(c1C(=O)O)CCC2)CC(=O)Nc1sc2c(c1C(=O)O)CCC2,25.6
